Changes are numbered by the printed parent chain. “Also recorded” adds a separate entry of the source. Blank lines part the entries; values can stand above or below the molecule they belong to.
Columns and labels:
TREM2 [1] = biological target: T1, TREM2 (Homo sapiens, UniProt Q9NZC2); assay: PAM and single point pSyk screen, HEK293 TREM2/DAP12 cells, antibody with or without PS/PC liposomes; assay type: cell-based; conditions: for p-Syk induction by antibody alone (in words): no liposomes, HEK293 TREM2/DAP12
T1 construct: expressed in transfected cells
Description: Two days in advance of the experiment, HEK293 cells stably overexpressing TREM2 and DAP12 were plated at 40,000 cells/well on a 96 well poly-D-lysine-coated plate. In PAM experiments utilizing lipid vesicles, the lipid vesicles (see protocol below) were then mixed with the antibodies (at a constant concentration) on a 96-well plate using a Hamilton Nimbus liquid handler at a liposome concentration of 0, liposome EC20, EC50, or EC80 (see below) in PBS. In agonist experiments alone (no liposomes), antibodies were diluted without liposomes in PBS. The cells were washed 3× with HBSS with a Biotek 405/406 plate washer, then 50 μL of the liposome/antibody mixture was added per well using a Hamilton Nimbus liquid handler. The cell plate containing the liposome/antibodies was then transferred to a 37° C. incubator for 5 minutes. The liposome/antibody solution was removed by flicking the plate, and 40 μL lysis buffer (Cell Signaling Technologies, CST) was added using the liquid handler. The lysate was incubated at 4° C. for 30 minutes, then either frozen at −80° C. or immediately carried forward to the alpha-LISA assay as described above.
Two days in advance of the experiment, HEK293 cells stably overexpressing TREM2 and DAP12 were plated at 40,000 cells/well on a 96 well poly-D-lysine-coated plate. The lipid vesicles (see protocol below) were then mixed with the antibodies on a 96-well plate using a Hamilton Nimbus liquid handler at a concentration of 0, EC20, EC50, or EC80 (see below). The cells were washed 3× with HBSS with a Biotek 405/406 plate washer, then 50 μL of the liposome/antibody mixture was added per well using a Hamilton Nimbus liquid handler. […]
The liposomes were diluted in HBSS, and 50 μL of liposome solution was added per well to TREM2/DAP12-overexpressing cells using the Hamilton Nimbus liquid handler as in the above protocol. […] The pSyk response was measured as described above from 10 μL lysate, and the curve fit using a non-linear regression (4 parameter dose response) fit in Prism.

soluble TREM2 (sTREM2) = biological target: T2, soluble TREM2 (sTREM2) (Homo sapiens, UniProt Q9NZC2); assay: Soluble TREM2 (TREM2 shedding) assay in HEK293 TREM2/DAP12 cells; assay type: cell-based; set-up: key to STREM2: NC = no change; −− = reduced sTREM2; ++ = increased sTREM2
T2 construct: expressed in transfected cells
T2 sequence (O43914 22-113 partner, one chain of several): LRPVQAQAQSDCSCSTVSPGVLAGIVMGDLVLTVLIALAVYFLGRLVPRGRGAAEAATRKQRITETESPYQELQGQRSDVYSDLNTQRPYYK
Description: HEK293 cells stably expressing human TREM2 and DAP12 were plated onto 96-well plates pre-coated with poly-D-lysine 4-16 hours prior to antibody treatment. Antibody supernatants or control antibodies were diluted into fresh complete media and added onto cells in triplicate. Cells were incubated with antibody containing media for 18 hours prior to removal of the cell supernatant for assay by TREM2 ELISA. Samples and standards were diluted 1:10 into blocking buffer (3% BSA/TBST) in the assay plate. Briefly, MSD small spot streptavidin plates were coated with biotinylated anti-hTREM2 polyclonal antibody (R&D Systems) overnight at 4° C. or 1 hour at room temperature. Plates were then blocked overnight at 4° C., or 1 hour at room temperature, with blocking buffer, 3% BSA/TBST. Plates were washed three times with TBST in a Biotek plate washer (used for all washes) prior to addition of diluent (blocking buffer) and denatured supernatants from cell culture. A TREM2-His protein diluted in 3% BSA/TBST was used as a standard for absolute quantification. Following 1 hour incubation at room temperature, plates were washed with TBST. […] After washing with TBST, MSD plates were developed using 2×MSD read buffer T, followed by detection using an MSD Sector plate reader. MSD values were converted to absolute quantities of sTREM2 by fitting a standard curve using Prism 7.0 software (Graphpad). […]

TREM2 [2] = biological target: T1, TREM2; assay: FACS binning on human TREM2-HEK cells (competition with R&D antibody); assay type: binding; conditions: epitope bin, 100 nM antibody
Description: HEK293 overexpressing human TREM2 (H6) were harvested by 0.05% trypsin and incubated at 37° C. incubator for 2 hours for surface TREM2 recovery. After incubation, cells were washed with 1×PBS and FACS buffer (PBS+0.5% BSA) with human Trustain FcX solution (Biolegend, Cat #422302) was added at a density of 10^6/mL. Cells were seeded at 100,000 cells per well in a 96-well round-bottom and incubated 20 minutes at room temperature. After incubation, anti-TREM2 antibodies (100 nM) were added to the cells and the cells were incubated for 45 minutes on ice. After incubation, rat anti-h/mTREM2-APC antibody (1:100, R&D, Cat # FAB17291A) was added to the cells, and the cells were incubated for 30 minutes on ice. After incubation, cells were washed with FACS buffer three times and resuspended in 10 μL FACS buffer, then analyzed by flow cytometry (BD FACSCanto II, San Jose, Calif.). 20,000 events were obtained for each sample. The ability to compete with R&D antibody was determined by MFI analysis compared to isotype or buffer control wells.

hTREM2 = biological target: T3, hTREM2 (Homo sapiens, UniProt Q9NZC2); assay: Octet binning (competition with R&D antibody on biotinylated TREM2-His); assay type: binding; conditions: epitope bin, 100 nM
T3 construct: The ecto domain (residues 19-172) of TREM2 (UniProtKB—Q9NZC2); secretion signal of mouse Ig kappa chain V-III (P01661 aa 1-20) (N); made in house; host or cells: Expi293F
T3 sequence (Q9NZC2 19-172): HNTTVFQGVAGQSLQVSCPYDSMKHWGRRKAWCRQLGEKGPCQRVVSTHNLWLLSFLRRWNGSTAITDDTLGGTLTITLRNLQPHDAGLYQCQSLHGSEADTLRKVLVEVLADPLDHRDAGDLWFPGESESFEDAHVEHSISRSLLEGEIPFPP
Description: Competition with R&D antibody was done by Octet Red using biotinylated human Trem2-His protein generated in house. Biotinylated human TREM2-His protein was captured on a streptavidin tip, and the tip was then incubated in either 100 nM of R&D Ab or buffer for 3 minutes, followed by incubation for 3 minutes in 100 nM of testing hybridoma. The difference of hybridoma binding curve with or without pre-binding to R&D antibody was analyzed to determine the epitope.

TREM2 [3] = biological target: T4, TREM2 (Homo sapiens, UniProt Q9NZC2); assay: TREM2 PAM/pSyk assay on human macrophages; assay type: cell-based
T4 construct: macrophage cells that endogenously express TREM2; endogenous in cells; host or cells: primary human monocyte-derived macrophages from donor blood
T4 sequence (Q9NZC2 19-230): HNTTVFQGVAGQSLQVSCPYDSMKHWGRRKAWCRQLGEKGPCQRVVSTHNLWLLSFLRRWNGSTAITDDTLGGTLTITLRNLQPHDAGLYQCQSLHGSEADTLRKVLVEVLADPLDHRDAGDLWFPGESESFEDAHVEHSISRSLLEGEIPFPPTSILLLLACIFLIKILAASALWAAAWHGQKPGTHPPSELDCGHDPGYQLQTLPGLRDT
Description: (§1) Human macrophages were differentiated from donor blood using a human monocyte enrichment cocktail (Stem Cell Technologies) and culturing monocytes with human mCSF for five days in macrophage media (RPMI+10% Hyclone FBS+Glutamax+Pen/Strep+non-essential amino acids+sodium pyruvate). On the fifth day, the human macrophages were scraped from the flasks and were re-plated at 100,000 cells/well on a 96-well poly-D-lysine-coated plate in the macrophage media (without mCSF). The cells were incubated for 24 hours to adhere, then the media was removed.
Antibodies pre-mixed with lipid vesicles comprised of 70% DOPC and 30% POPS (made according to the procedure for making vesicles described above) diluted in HBSS were immediately added to the cells, and allowed to incubate for 5 minutes at 37° C. The liposome/antibody solution was removed, and 35 μL lysis buffer (Cell Signaling Technologies, CST) was added using the liquid handler. The lysate was then incubated at 4° C. for 30 minutes, then either frozen at −80° C. or immediately carried forward to a pSyk AlphaLISA assay as described above. […] The results of the assay are shown in FIG. 9B and in Table 8 below.

TREM2 [4] = biological target: T1, TREM2; assay: pSyk antagonist assay on HEK293 TREM2/DAP12 cells; assay type: cell-based; conditions: FIGS. 9E-9G
Description: These experiments were performed as follows. Two days in advance of the experiment, HEK293 cells stably overexpressing TREM2 and DAP12 were plated at 40,000 cells/well on a 96 well poly-D-lysine-coated plate. Antibodies diluted in DMEM alone were immediately added to the cells, and allowed to incubate for 30 minutes at 37° C. The antibodies were then removed. […] The liposome/antibody solution was removed, and 35 μL lysis buffer (Cell Signaling Technologies, CST) was added using the liquid handler. The lysate was then incubated at 4° C. for 30 minutes, then either frozen at −80° C. or immediately carried forward to a pSyk AlphaLISA assay as described above. The percent inhibition was calculated as in FIG. 9C.
FIGS. 9F and 9G show inhibition by 21D4 and 21D11, respectively, at increasing antibody concentrations. These experiments were performed similarly to those described in FIG. 9E.

TREM2 [5] = biological target: T4, TREM2; assay: TREM2 pSyk antagonist assay on human macrophages (antibody pre-incubation, then liposomes); assay type: cell-based; conditions: FIGS. 9C-9D, 30 nM antibody
Description: as §1
Antibodies diluted in RPMI alone were immediately added to the cells, and allowed to incubate for 30 minutes at 37° C. The antibodies were then removed. Lipid vesicles comprised of 70% DOPC and 30% POPS (made according to the procedure for making vesicles described above) in HBSS were added to the cells and incubated […] at 37° C. The liposome/antibody solution was removed, and 35 μL lysis buffer (Cell Signaling Technologies, CST) was added using the liquid handler. The lysate was then incubated at 4° C. for 30 minutes, then either frozen at −80° C. or immediately carried forward to a pSyk AlphaLISA assay as described above.

interaction with lipid ligand to activate p-Syk (in words) (TREM2 [1]; FIG. 9A, 30 nM antibody, PS/PC liposomes, HEK cells): block lipid ligand activation of TREM2 | p-Syk induction by antibody alone (in words) (TREM2 [1]): alone induce pSyk signaling | p-Syk induction by antibody alone (in words) (TREM2 [1]; listed as 21D4): do not induce p-Syk | TREM2 shedding (in words) (soluble TREM2 (sTREM2); FIG. 4, 18 hours): enhances TREM2 shedding | STREM2 (soluble TREM2 (sTREM2); change in sTREM2 levels): ++ | Bin by FACS (TREM2 [2]): 1 | Bin by Octet (hTREM2): 1-2 | effect on lipid ligand activation of TREM2 (in words) (TREM2 [3]; FIG. 9B, human macrophages): inhibitor effect | Slope + Liposome (TREM2 [3]; pSyk, 10 nM antibody with 0, EC20, EC50, EC80 PS/PC liposomes, liposome-alone signal subtracted): −1.632
B1: 21D4.D1: anti-TREM2 antibody clone; VH SEQ ID NO:15, VL SEQ ID NO:26 (antibody, V domains shown)
VH: QVQLQQSGADLLRPGVSVKISCKGSGYTFTDHAMHWVKQSHAESLEWIGVISTYSGDTGYNQKFKGKATMTVDKSSSTAYLELARLTSEDSAIYYCAREGHYDDAMDYWGQGTSVTVSS
VL: DVVMTQTPLTLSVTIGQPASFSCKSSQSLLDSDGKTYLNWLLRRPGQSPKRLIYVVSKLDSGVPDRFTGSGSGTDFTLKISRVEAEDLGVYYCWQGTHFPYTFGGGTKLEIK
inhibition of liposome mediated pSyk (TREM2 [4]): antagonistic activity; also recorded: significantly reduced TREM2 activation by liposomes

Bin by FACS (TREM2 [2]): 1-2 | Bin by Octet (hTREM2): 1-2 | liposome mediated pSyk signaling after antibody pre-incubation (TREM2 [5]): blocked
B2: 51D4: anti-TREM2 antibody clone; VH SEQ ID NO:314, VL SEQ ID NO:318 (antibody, V domains shown)
VH: QVHLQQSGPEVVRPGVSVKISCKGSGYTFTDYGMHWVKQSHAKSLEWIGVISTYNGNTSYNQKYKGKATVTVDKPSSTAYMELVRLTSEDSAIYYCARDFGYVPFDYWGQGTTLTVSS
VL: B1 VL with F21I, R43Q, V55L, K58Y, E86D

— patent US20200277373A1, “ANTI-TREM2 ANTIBODIES AND METHODS OF USE THEREOF” (Denali Therapeutics Inc., priority 2017, published 2020)
